Measured values as given in PubChem BioAssay AID1159614 (National Center for Advancing Translational Sciences (NCATS), 2016).
The campaign covered roughly 45,000 compounds. About 65 (0.1%) were called active. The call rests on the fitted dose curve; in most records, active means well fitted activation curve with a large enough effect; inconclusive means small, poorly fitted or top-dose-only effect; inactive means no such curve, though single readings can be large or run the other way. The list shows a part of the results.

The compounds below were run against Galactocerebrosidase (Homo sapiens) (UniProt P54803) (assay: A Novel Cell-Based Assay to Identify Small Molecules for B -Galactocerebrosidase). Conditions: 145M-Twi-hGALC-G270D cells (Twitcher mouse brain line with human GALC G270D), HMU-beta-Gal fluorescence, 48 h; series mostly up to 57.5 µM; activation: at the top concentration.
Outline: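 Fluorescence readout: HMU-β-gal cleavage by mutant GALC (0.1 mM final, citrate/phosphate pH 5.2 with 1 mg/mL taurocholate), stopped with carbonate/bicarbonate plus Triton X-100. Cells: murine Twitcher 145M-Twi expressing human G270D GALC; qHTS for activators.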
Further: 0% is about no effect; nearly all actives have a fitted effect of over 65% in size.

UniProt P54803, sequence (P54803 whole entry, looked up): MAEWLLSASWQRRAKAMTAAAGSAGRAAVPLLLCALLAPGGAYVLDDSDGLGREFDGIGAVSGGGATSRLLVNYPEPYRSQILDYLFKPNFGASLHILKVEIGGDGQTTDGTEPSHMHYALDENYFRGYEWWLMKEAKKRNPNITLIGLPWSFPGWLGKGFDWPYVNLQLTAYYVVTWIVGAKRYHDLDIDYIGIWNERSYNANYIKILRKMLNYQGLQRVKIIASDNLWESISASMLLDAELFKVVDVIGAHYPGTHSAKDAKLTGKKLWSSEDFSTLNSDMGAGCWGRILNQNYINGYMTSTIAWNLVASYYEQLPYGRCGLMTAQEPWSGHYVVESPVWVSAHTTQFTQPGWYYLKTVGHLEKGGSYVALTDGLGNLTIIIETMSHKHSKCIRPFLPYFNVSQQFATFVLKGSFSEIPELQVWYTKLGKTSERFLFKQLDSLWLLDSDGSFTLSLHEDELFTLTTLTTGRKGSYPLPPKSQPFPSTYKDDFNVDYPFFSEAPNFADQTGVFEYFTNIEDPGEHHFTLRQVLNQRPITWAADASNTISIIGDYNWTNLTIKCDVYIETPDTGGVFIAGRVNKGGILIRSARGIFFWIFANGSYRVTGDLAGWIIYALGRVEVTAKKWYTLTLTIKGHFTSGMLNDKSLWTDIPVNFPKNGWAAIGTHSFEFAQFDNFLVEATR

activation, inactive:
C[C@@H](CN1CC(=O)NC(=O)C1)N1CC(=O)NC(=O)C1 -6.3%
O=C(C1CCCN(S(=O)(=O)c2ccc(Br)s2)C1)N1CCN(c2cccc(Cl)c2)CC1 (configuration not stated) -16.2%
Cc1cccc(N2CCN(S(=O)(=O)c3ccc(-c4cc(C(F)(F)F)on4)s3)CC2)c1C 0.244%
Cc1ccccc1OCC(=O)Nc1ccc2nc(SCC(=O)N3CCc4ccccc43)sc2c1 9.03%
COc1ccc(Cl)cc1NC(=O)c1nnn(Cc2cccc(C(F)(F)F)c2)c1N -14.4%
COc1ccc2c(c1)c1c(c(=O)n(-c3ccc(C)cc3)c(=O)n1CC(=O)NCc1ccc(C)cc1)n2C -10.5%
COc1ccc(OCC(=O)Nc2cc(-c3nc4ccccc4s3)ccc2C)cc1 -7.89%
CCC(C)Sc1oc(-c2ccco2)nc1S(=O)(=O)c1ccc(C)cc1 (configuration not stated) -38.9%
OCc1cc(C(O)CNCCCCCCOCCCCc2ccccc2)ccc1O (configuration not stated) -10.9%
COc1cccc(C2C(C(=O)Nc3ccc(Cl)cc3)=C(C)Nc3nc4ccccc4n32)c1 (configuration not stated) 11.6%
COc1ccccc1C1Nc2c(sc3nc(C)cc(C)c23)C(=O)N1c1ccccc1 (configuration not stated) -7.77%
Cc1ccc(CNc2ncnc3c2cnn3-c2ccc(Cl)cc2)cc1 -3.18%
COc1cccc(CC(=O)Nc2ccc(-c3nc4ccccc4s3)cc2)c1 -12.7%
C=CCc1cccc2cc(C(=O)NCCc3c(C)[nH]c4c(C)cccc34)c(=O)oc12 -9.37%
O=C(NCC(c1ccc2c(c1)OCO2)N1CCOCC1)C(=O)Nc1ccccc1 (configuration not stated) -10.1%
CCN(CC)c1ccc(NC(=O)CCc2nc3cccnc3n2Cc2cccs2)c(C)c1 4.29%
O=C(O)Cc1sc(-c2ccccc2)nc1-c1ccc(Cl)cc1 -3.96%
Cc1cc2c(cc1C)NC(CC(=O)Nc1cccc(Cl)c1)C(=O)N2 (configuration not stated) -15.4%
NS(=O)(=O)c1ccc(CCNC(=O)Cn2c(-c3cccs3)cc3ccccc32)cc1 -4.56%
Cc1ccccc1NC(=O)c1ccc2c(O)c(S(=O)(=O)c3ccccc3)c(=O)[nH]c2c1 -23.3%
CCOC(=O)N1CCC(NC(=O)c2cnn(-c3ccc(F)cc3F)c2C2CCN(C(=O)OC(C)(C)C)CC2)CC1 -2.18%
CNc1ccc(-c2nc(-c3ccco3)no2)cc1[N+](=O)[O-] -3.36%
CN(Cc1ccc(F)cc1)S(=O)(=O)c1nnc(NC(=O)c2ccccc2Cl)s1 -4.98%
Cn1nnnc1SCCCNCc1ccc(-c2ccc(F)c(Cl)c2)o1 -12%
CCc1nc(-c2cc(S(=O)(=O)N3CCN(c4ccccc4F)CC3)ccc2OC)no1 -20.8%
CCCN1C(C(=O)c2ccccc2)=C(OC(=O)c2ccc(OC)cc2)c2ccccc2S1(=O)=O -9.65%
O=C(Cn1c(=O)c(C(F)(F)F)nc2ccccc21)Nc1cccc(Br)c1 -6.83%
COc1ccc(CCNC(=O)c2c(C)oc3ncnc(N4CCOCC4)c23)c(OC)c1 3%
Cc1cc(C)cc(Nc2cc(C(=O)NC3CCC(C)CC3)c3ccccc3n2)c1 (configuration not stated) 19.4%
Cc1ccc(S(=O)(=O)Nc2cc3c(cc2C)n(C)c(=O)c(=O)n3C)c(C)c1 -16.4%
Cc1cc(C)cc(NS(=O)(=O)c2ccc(N3CCCCS3(=O)=O)cc2)c1 -16.3%
O=C(NCCc1ccccc1)c1ccc(CS(=O)(=O)Cc2ccccc2Cl)o1 -0.576%
Cc1ccc(CNC(=O)C2CCCN(S(=O)(=O)c3cn(C)cn3)C2)cc1 (configuration not stated) -9.63%
CCc1ccc(NC(=O)CN2C(=O)CCSc3ccccc32)cc1 -5.88%
Cc1cc(=O)n(CC(=O)NCc2ccc(OC(C)C)cc2)c2c1c(C)nn2-c1cccc(F)c1 -10.5%
CC(C)c1cnc2c(c1SCC(=O)N1CCCCC1)c(=O)n(C)c(=O)n2C -1.31%
COc1ccc(Nc2c(-c3ccc(N4CCOCC4)cc3)nc3ncccn23)cc1OC -10.8%
CCOc1cc(CN2CCN(S(=O)(=O)c3ccc(C)cc3)CC2)ccc1OC -21.2%
COc1ccc(/C=C/C(=O)Nc2sc(C)c(C)c2C(=O)O)cc1 -4.64%
Cc1ccc(NC(=O)C(C)Sc2nc(-c3ccccc3)c(C#N)c(=O)[nH]2)c(C)c1 (configuration not stated) -17.4%
O=C(Nc1nnc(S(=O)(=O)N2CCOCC2)s1)c1ccccc1F -11.6%
CC(C)Cc1nn2c(=O)cc(COC(=O)c3ccc(NC(=O)CCc4ccccc4)cc3)nc2s1 -8.56%
O=c1c(N2CCc3ccccc3C2)csc2ccc(Cl)cc12 -12.3%
CCc1ccc2c(c1)NC(c1ccc(C)cc1)=NC(c1cccs1)=N2 -4.53%
CCOC(=O)N1CCc2c(sc3c2c(=O)n(Cc2ccccc2)c(=O)n3CC(=O)Nc2ccc(C)cc2C)C1 -6.03%
CCn1c(=O)sc2cc(NS(=O)(=O)c3ccc(C)cc3)ccc21 -12.7%
CCOc1cccc(C(=O)N2CCC(c3nc4ccccc4s3)CC2)c1 -19.3%
COc1ccc(-c2noc(N(c3cccc(Cl)c3)c3nc(-c4ccc(OC)c(OC)c4)no3)n2)cc1OC -2.18%
CCN1CC(CCN2CCOCC2)C(c2ccccc2)(c2ccccc2)C1=O (configuration not stated) -19.3%
Cn1nc(-c2ccccc2F)c2cc(C(=O)NCCc3ccc(Cl)cc3)sc21 -9.46%
COCCCNC(=O)c1cnc2c(-c3ccc(F)cc3)c(C)nn2c1C 6.82%
CCOC(=O)C1CCN(C(c2cccc(F)c2)c2c(O)cc(C)n(Cc3ccco3)c2=O)CC1 (configuration not stated) -21.1%
Brc1cccc(-c2nnc(CN3CCN(c4ccccn4)CC3)o2)c1 -8.16%
Cc1ccc(S(=O)(=O)Cc2ccc(C(=O)NCCc3ccc(Cl)cc3)o2)cc1 -13.3%
CC(=O)c1ccc(NC(=O)CSc2ccc(-c3cccs3)nn2)cc1 -16.7%
CCOc1ccc(-c2nc(SCC(=O)c3ccccc3)n[nH]2)cc1 -8.66%
CN(C)c1ccc(CNC(=O)c2cnc3sc(N4CCOCC4)nn3c2=O)cc1 -1.06%
O=C(NC1CCCCC1)c1ccc(CSc2nc3cccnc3n2Cc2ccc(F)cc2)cc1 -1.22%
CCOC(=O)c1ccc(NC(=O)CCC(=O)N2Cc3ccccc3Oc3ncccc32)cc1 -11.8%
COc1ccc(OC)c(NC(=O)C2CCN(S(=O)(=O)c3ccc4c(c3)CCCC(=O)N4)CC2)c1 10.7%
O=C(c1cc(O)c(O)c(O)c1)c1ccc(O)c(O)c1O -17%
CCOC(=O)c1c(S(=O)(=O)N2CCCC(C(=O)Nc3cc(C)ccn3)C2)c(C)n(C)c1C (configuration not stated) -21.5%
